Measured values published in PubChem BioAssay AID1508624 (National Center for Advancing Translational Sciences (NCATS), 2021).
In all, about 48,000 compounds went through this assay and about 120 (0.25%) were called active. Another 4% or so got no clear call; they are omitted. Calls follow the shape of the dose curve; as a rule, active = well fitted activation curve with a large enough effect; inconclusive = small, poorly fitted or top-dose-only effect, or another doubt; inactive = no such curve, though single readings can be large or run the other way. The list shows a part of the results.

Experiment: Primary qHTS for Identification of Small Molecule Activators of Huntingtin-Antisense Promoter Activity; also: nearly all actives have a fitted effect of over 55% in size
Conditions: HEK293 HTT-AS promoter firefly luciferase reporter (activity 0% = vehicle and -100% = no light), 24 h; series mostly up to 57.5 µM; activity change, positive = activation: at the top concentration
Summary of the method: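 Firefly luciferase signal from promoter-reporter HEK293 cells was scaled between vehicle (0%) and zero RLU (-100%). Compounds were tested at final concentrations of up to 57.5 uM over 24 h at 37 degrees C. PTC124 at 50 uM final served as control inhibitor.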
In the case of `CC(=O)Nc1ccc(NS(=O)(=O)c2c(C(=O)N3CCCCCC3)c(C)n(C)c2C)cc1`, the “activity change, positive = activation” value is reported as inactive: -8.84%.
With `CN(C)c1ccc(NC(=O)Cn2c(SCc3ccc(F)cc3)nc3ccncc32)cc1` the “activity change, positive = activation” value was inactive: -7.66%.
In the case of `COc1ccc(CCNC(=O)CSc2cn(CCNC(=O)c3c(F)cccc3F)c3ccccc23)cc1OC`, the “activity change, positive = activation” value is reported as inactive: -28.6%.
For `COc1ccc(Cn2c(=O)c3oc4ccccc4c3n(CC(=O)Nc3c(C)cccc3C)c2=O)cc1`, the “activity change, positive = activation” value was inactive: -4.29%.
For `Cc1oc2cc3oc(=O)c(CCC(=O)NCCc4ccccc4F)c(C)c3cc2c1C`, the “activity change, positive = activation” value was inactive: 15.7%.
In the case of `COc1ccc(-c2nc3c(c(SCc4ccc(Br)cc4)n2)Cc2c(CO)cnc(C)c2O3)cc1`, the “activity change, positive = activation” value is reported as inactive: -13.9%.
With `Cc1ccc(OCCSc2nnc(-c3cccs3)o2)cc1` the “activity change, positive = activation” value was inactive: 6.02%.
For `O=C(CSc1nc2ccccc2n1Cc1cccc(F)c1)NCc1ccccc1`, the “activity change, positive = activation” value was inactive: -30.3%.
For `CCOC(=O)c1sc2ncn(CC(=O)Nc3ccc(OC)c(Cl)c3)c(=O)c2c1C`, the “activity change, positive = activation” value was inactive: 0.282%.
With `COc1ccc(-c2nc3sc(CCNC(=O)C(=O)Nc4ccc(OC)c(OC)c4)c(C)n3n2)cc1` the “activity change, positive = activation” value was inactive: 9.95%.
With `CC(C)CCNC(=O)Cn1nc(N2CCN(c3ccccc3)CC2)ccc1=O` the “activity change, positive = activation” value was inactive: -10.9%.
With `Cc1ccccc1Cn1c2ccccc2c2cnn(CC(=O)NC3CCCCCC3)c(=O)c21` the “activity change, positive = activation” value was inactive: -5.88%.
For `COc1ccc(Br)cc1Cn1nnc(C(=O)Nc2cccc(SC)c2)c1N`, the “activity change, positive = activation” value was inactive: -30.4%.
For `CC[C@@H](C)[C@H](NC(=O)[C@H](CC1CCCCC1)NC(=O)c1ccno1)C(=O)N1CCC2(CCc3ccccc32)CC1`, the “activity change, positive = activation” value was inactive: -20.7%.
For `COc1ccc(OC)c(C2C(C(=O)Nc3ccc(C)cc3)=C(C)Nc3nnnn32)c1` (stereo not drawn), the “activity change, positive = activation” value was inactive: -17.4%.
With `Cc1ccc(NC(=O)c2ccc(CN3CC(=O)N4CCCCC4C3=O)cc2)c(Cl)c1` (stereo not drawn) the “activity change, positive = activation” value was inactive: -12.3%.
For `CN(CC(=O)Nc1cccc(F)c1)S(=O)(=O)c1ccc2c(c1)n(C)c(=O)c(=O)n2C`, the “activity change, positive = activation” value was inactive: 17.8%.
In the case of `CSc1cccc(NC(=O)c2cc3c(COC(C)=O)cnc(C)c3oc2=O)c1`, the “activity change, positive = activation” value is reported as inactive: -12.7%.
In the case of `COc1cc(CNC(=O)c2cc3n(n2)CCCN(Cc2cccc(F)c2)C3=O)cc(OC)c1OC`, the “activity change, positive = activation” value is reported as inactive: -11.5%.
With `CC(=O)c1cccc(NC(=O)CSc2ncc3c(n2)-c2cc(Cl)ccc2N(Cc2ccccc2)S3(=O)=O)c1` the “activity change, positive = activation” value was inactive: -12.2%.
With `O=C(CC(c1cccs1)N1Cc2ccccc2C1=O)Nc1ccc(F)cc1` (stereo not drawn) the “activity change, positive = activation” value was inactive: -17.2%.
In the case of `COc1ccc(S(=O)(=O)NCc2nc(-c3ccccc3)no2)cc1`, the “activity change, positive = activation” value is reported as inactive: -23.2%.
For `O=C(c1cc2c(Cl)nc3ccccc3c2s1)N1CCCCC1`, the “activity change, positive = activation” value was inactive: 21.3%.
For `Oc1ccc(-c2nc3ccc(Cl)cn3c2Nc2ccc(Cl)cc2)cc1`, the “activity change, positive = activation” value was inactive: -39.2%.
For `COc1ccc(Cn2ccc3nc(C)c(C(=O)NCc4ccc(SC)cc4)cc3c2=O)cc1`, the “activity change, positive = activation” value was inactive: -24.6%.
For `Cc1ccccc1NC(=O)Cn1nc(-c2ccccc2)nc(Cc2ccccc2)c1=O`, the “activity change, positive = activation” value was inactive: -4.84%.
For `Cc1ccc(CNS(=O)(=O)c2cnc(N)nc2)cc1`, the “activity change, positive = activation” value was inactive: -10.1%.
In the case of `COc1ccc(CNC(=O)CSc2nnc(C)c3c(C)n(-c4ccccc4)nc23)c(OC)c1`, the “activity change, positive = activation” value is reported as inactive: -35.8%.
With `CCc1ccc2ncc3c(-c4ccc(C)cc4)nn(CC(=O)NCc4ccccc4)c3c2c1` the “activity change, positive = activation” value was inactive: -5.32%.
With `CSc1ncc(C(=O)NCc2cccc(C)c2)c(-c2ccccc2)n1` the “activity change, positive = activation” value was inactive: -20.3%.
With `COc1ccccc1/C=C/C(=O)Nc1nc2n(n1)C(c1ccc(F)cc1)C=C(c1ccccc1)N2` (stereo not drawn) the “activity change, positive = activation” value was inactive: -20.7%.
For `Cc1ccc(OCCn2c(C3CC(=O)N(Cc4ccc(F)cc4)C3)nc3ccccc32)c(C)c1` (stereo not drawn), the “activity change, positive = activation” value was inactive: -46.6%.
For `C=CCc1ccccc1OCCSc1nc(-c2ccccc2F)nc2cc(=O)[nH]n12`, the “activity change, positive = activation” value was inactive: 7.86%.
With `O=S(=O)(NCC(c1ccccc1)N1CCc2ccccc21)c1ccc(Cl)cc1` (stereo not drawn) the “activity change, positive = activation” value was inactive: -39.6%.
For `COc1ccc(C(=O)c2cn(Cc3ccccc3OC)c3cc4c(cc3c2=O)OCO4)cc1`, the “activity change, positive = activation” value was inactive: -3.6%.
For `Cc1cccc(N2CCN(c3nc4ccccc4c4nnc(C)n34)CC2)c1C`, the “activity change, positive = activation” value was inactive: -12.8%.
With `CCN(CC)C(=O)c1sc2c(c1C)c(=O)n(-c1ccc(OC)cc1OC)c(=O)n2CC(=O)Nc1ccccc1` the “activity change, positive = activation” value was inactive: -11.3%.
For `COC(=O)c1ccc(NC(=O)CC2C(=O)N(c3ccccc3)C(=O)N2Cc2cccs2)cc1` (stereo not drawn), the “activity change, positive = activation” value was inactive: -5.34%.
In the case of `Cc1cc(C)cc(-n2ccnc2SCC(=O)Nc2ccccc2F)c1`, the “activity change, positive = activation” value is reported as inactive: -23.7%.
With `O=C(CN1C(=O)COc2ccc(S(=O)(=O)N3CCCCCC3)cc21)N1CCN(c2ccc(Cl)cc2)CC1` the “activity change, positive = activation” value was inactive: -23.9%.
With `CCOC(=O)c1ccc(NC(=O)CC(C)n2nc(C)cc2C)cc1` (stereo not drawn) the “activity change, positive = activation” value was inactive: 0.0719%.
With `COc1cc(NC(=O)Cc2noc3ccccc23)cc(OC)c1OC` the “activity change, positive = activation” value was inactive: -11.9%.
With `Cc1cccc(-n2ncc3c(NNC(=O)c4ccccc4Cl)ncnc32)c1` the “activity change, positive = activation” value was inactive: -23.2%.
For `COc1ccc(-c2ccc(=O)n(CC(=O)Nc3cc(OC)ccc3OC)n2)cc1`, the “activity change, positive = activation” value was inactive: -15%.
With `O=c1[nH]c(C2CCCN(S(=O)(=O)c3ccccc3)C2)nc2c1nnn2Cc1ccccc1Br` (stereo not drawn) the “activity change, positive = activation” value was inactive: -30.3%.
For `CCOC(=O)c1cccc(NC(=O)Nc2c(C)n(C)n(-c3ccccc3)c2=O)c1`, the “activity change, positive = activation” value was inactive: -3.39%.
With `COc1ccc(CNC(=O)c2cc(-c3ccc(Br)s3)nc3ccccc23)cc1` the “activity change, positive = activation” value was inactive: -9.73%.
In the case of `Cc1ccc(C)c(Nc2nn3c(=O)c4ccc(C(=O)NCc5ccccc5)cc4nc3s2)c1`, the “activity change, positive = activation” value is reported as inactive: -23.4%.
